Here are results for 88 compounds from publication PMC4336329 (PLoS ONE, 2015).

About 14,000 (4.5%) of roughly 310,000 compounds showed an effect of 50% or more. The effect is printed as a negative number. The list shows a part of the results.
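Note: peak tail current of the secondary pulse compared with the same well before compound.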

In this assay the target is human ether-à-go-go-related gene (hERG) potassium channel (human, UniProt Q12809). Put plainly: primary screen, population patch clamp on CHO cells stably expressing hERG.
Chain of human ether-à-go-go-related gene (hERG) potassium channel (Q12809 whole entry, looked up): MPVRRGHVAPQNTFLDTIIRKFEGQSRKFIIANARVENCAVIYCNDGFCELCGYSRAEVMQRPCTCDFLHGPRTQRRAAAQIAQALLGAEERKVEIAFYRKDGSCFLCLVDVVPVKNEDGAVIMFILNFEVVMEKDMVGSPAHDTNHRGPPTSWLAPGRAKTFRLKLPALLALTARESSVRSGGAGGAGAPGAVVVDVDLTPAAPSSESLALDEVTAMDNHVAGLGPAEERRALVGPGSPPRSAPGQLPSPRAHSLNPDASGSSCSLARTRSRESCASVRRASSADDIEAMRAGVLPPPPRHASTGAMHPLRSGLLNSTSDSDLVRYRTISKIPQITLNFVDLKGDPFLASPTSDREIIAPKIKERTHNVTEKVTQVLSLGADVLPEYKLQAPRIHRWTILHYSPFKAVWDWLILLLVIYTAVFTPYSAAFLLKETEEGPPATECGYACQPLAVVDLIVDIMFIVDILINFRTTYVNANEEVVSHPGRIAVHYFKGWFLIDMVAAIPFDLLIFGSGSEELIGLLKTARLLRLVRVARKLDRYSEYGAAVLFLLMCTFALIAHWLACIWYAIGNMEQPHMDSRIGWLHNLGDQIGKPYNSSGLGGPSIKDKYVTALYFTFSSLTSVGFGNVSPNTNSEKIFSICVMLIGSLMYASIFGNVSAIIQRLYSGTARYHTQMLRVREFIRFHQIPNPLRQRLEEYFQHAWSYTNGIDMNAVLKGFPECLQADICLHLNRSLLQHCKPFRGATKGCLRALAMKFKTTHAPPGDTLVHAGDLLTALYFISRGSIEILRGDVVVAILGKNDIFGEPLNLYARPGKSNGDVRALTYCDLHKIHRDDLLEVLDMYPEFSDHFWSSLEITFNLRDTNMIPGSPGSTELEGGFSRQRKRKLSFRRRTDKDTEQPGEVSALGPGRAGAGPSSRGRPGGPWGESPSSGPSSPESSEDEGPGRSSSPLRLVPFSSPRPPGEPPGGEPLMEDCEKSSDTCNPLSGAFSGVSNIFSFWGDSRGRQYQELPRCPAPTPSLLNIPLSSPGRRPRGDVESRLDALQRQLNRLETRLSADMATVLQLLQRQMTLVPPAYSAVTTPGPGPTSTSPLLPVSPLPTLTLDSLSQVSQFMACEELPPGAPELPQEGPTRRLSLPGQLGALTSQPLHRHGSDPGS
For `O=C(Nc1cnc2ccccc2c1)c1cccc(-n2cnnn2)c1`, the “hERG current change (%, negative = inhibition) at 10uM” value was -16.2%.
`O=C(NC(=S)Nc1ccc(CN2CCOCC2)cc1)c1ccc([N+](=O)[O-])cc1`: the “hERG current change (%, negative = inhibition) at 10uM” value is -13%.
The value for `O=S(=O)(Nc1ccc(S(=O)(=O)N2CCCC2)cc1)c1ccc(F)cc1` was -9.96%.
For `CC1CC(C)CN(C(=O)CSc2nnc(-c3ccc(Cl)cc3)o2)C1` (stereo not shown), the “hERG current change (%, negative = inhibition) at 10uM” value amounted to 4.29%.
In the case of `CC(C)N1CCC(=NNC(=O)c2cccs2)CC1`, the “hERG current change (%, negative = inhibition) at 10uM” value came to 25.6%.
For `Cc1ccc(SCC(=O)N(C)C2CCS(=O)(=O)C2)cc1` (stereo not shown) the value was 9.08%; for `Oc1ccc2ccccc2c1/C=N/c1nccs1`, 18.8%; for `CC(Sc1nnc(CNc2cccc3ccccc23)n1-c1ccccc1)C(=O)N/N=C/c1ccco1` (stereo not shown), -10.2%.
Take `Cc1ccc(C)c(N2CCN(S(=O)(=O)c3c(C)noc3/C=C/N(C)C)CC2)c1`: the “hERG current change (%, negative = inhibition) at 10uM” value is recorded as 2.28%.
Turning to `CCCCSc1nnc(-c2ccc(NC(=O)CC)cc2)n1C`, the “hERG current change (%, negative = inhibition) at 10uM” value is 1.51%.
Take `CC1=C(C(=O)Nc2ccccc2C)C(c2cccnc2)n2nc(CCCO)nc2N1` (stereo not shown): the “hERG current change (%, negative = inhibition) at 10uM” value is 6.31%.
With `Cc1cc(C=O)c(C)n1CC1CCCO1` (stereo not shown), the “hERG current change (%, negative = inhibition) at 10uM” value is listed as 14.7%.
Take `Cn1nccc1C(=O)Nc1ccc2c(c1)OCO2`: the “hERG current change (%, negative = inhibition) at 10uM” value is listed as 10.8%.
For `Cc1ccc(S(=O)(=O)NCCS(=O)(=O)N2CCN(c3ccc(F)cc3)CC2)cc1` the value was -19%; for `COc1ccc(C2C3C=CCC(c4cccc(-c5ccc(C)cc5)c4)C3C(=O)N2Cc2ccccc2)cc1Cl` (stereo not shown), 10.5%; for `COc1ccc(S(=O)(=O)N2CCCCCC2)cc1C(=O)N1CCN(c2ccccc2C)CC1`, -48%.
For `Cc1ccc(NC(=O)/C(=C\c2cccs2)NC(=O)c2ccccc2)cc1` the value was -3.84%; for `O=C(CSc1nc2ccccc2[nH]1)c1ccccc1F`, 11.1%; for `O=C(NCCO)/C(=C\c1ccc2c(c1)OCO2)NC(=O)c1ccc(Br)cc1`, -51.9%.
For `COc1ccc(NC(=O)c2oc3ccccc3c2NC(=O)C(C)(C)C)cc1` the value was 11.3%.
As for `O=C(O)c1oc2ccccc2c1CSc1ccc(Cl)cc1`, the “hERG current change (%, negative = inhibition) at 10uM” value turned out to be 17.3%.
For `O=C(N/N=C/c1ccccc1)c1ccc(-c2ccccc2)cc1` the value was 22.2%; for `Cc1cc(NC(=O)/C=C/c2ccc(Cl)cc2)no1`, 1.12%; for `Cc1cc(C)n(-c2nc3c(c(=O)[nH]c(=O)n3C)n2C(C)C)n1`, 21.4%.
The value for `O=C(CCCOc1ccc(Cl)cc1Cl)N/N=C/c1ccco1` was -4.05%; that for `O=C([O-])c1ccc(-n2nc(C(F)(F)F)cc2-c2cccs2)cc1.[Na+]` was 20.6%; that for `COc1ccc(NC2CCCN(Cc3cccc4cnccc34)C2)cc1OC` (stereo not shown) was -11.2%.
The value for `COc1cc(OCC(N)=O)cc(OC)c1OC` was -20%; that for `Cc1ccc(NC(=O)c2cncc(Br)c2)c([N+](=O)[O-])c1` was -7.77%; that for `O=C(CN(c1ccc(F)cc1)S(=O)(=O)c1ccc2c(c1)OCCO2)NCc1ccccc1` was -2.19%.
As to `COc1cccc(Cn2cccc(NC(=O)Nc3ccc(C#N)cc3)c2=O)c1`, the “hERG current change (%, negative = inhibition) at 10uM” value came out at 15.9%.
For `O=C(Cn1c(=O)c(=O)n(Cc2ccccc2)c2ccc(Cl)cc21)Nc1ccc(F)cc1F` the value was 21.3%.
For `CCCC(=O)NC(C)c1nc2ccccc2n1C` (stereo not shown) the value was 6.47%; for `CCOC(=O)CN(C(=O)CSc1nnc(Cc2ccccc2)n1-c1ccc(C)cc1)c1ccccc1`, -59.2%.
For `CCCCNC(=O)C1CCN(c2nc(C)cc(C)n2)CC1` the value was 17%; for `c1csc(-n2nc3ccccc3n2)c1`, -13.4%; for `O=c1c2ccccc2nc(CSc2ncnc3nc[nH]c23)n1-c1ccccc1Cl`, 10%.
Turning to `COc1cc(/C=C2\SC(=S)N(CC(=O)O)C2=O)ccc1OC(=O)c1ccco1`, the “hERG current change (%, negative = inhibition) at 10uM” value is on record as 12.1%.
For `c1ccc2c(-n3cnnn3)cccc2c1` the value was -1.76%.
For `CCCCCOC(=O)Cc1c(O)c2ccccc2[nH]c1=O` the value was 12.8%.
As to `Cc1c(C(=O)NCCNc2ncc(C(F)(F)F)cc2Cl)cccc1[N+](=O)[O-]`, the “hERG current change (%, negative = inhibition) at 10uM” value amounted to 5.52%.
For `CCOC(=O)C(N)CSC1CC(=O)N(c2ccc(C(=O)OC)cc2)C1=O` (stereo not shown) the value was -5.97%; for `CC1=NN(C(=O)c2cc(C)nn2C)C(O)(C(F)(F)F)C1` (stereo not shown), 30.4%; for `COC(=O)c1sc(C(C)(C)C)cc1CS(=O)(=O)c1ccccn1`, 6.34%.
Turning to `COc1ccc(-c2nnc(SCc3ncc(-c4ccccc4)o3)o2)cc1`, the “hERG current change (%, negative = inhibition) at 10uM” value is 9.01%.
For `Cc1ccccc1C(=O)NNC(=O)/C=C\C(=O)O`, the “hERG current change (%, negative = inhibition) at 10uM” value is given as -11.1%.
For `O=C(Nc1ccccc1F)c1coc(=O)c(Br)c1` the value was 5.87%; for `Cc1ccc(-n2sc3ccccc3c2=O)cc1`, 29.4%.
Regarding `Cc1nnc(N/N=C/c2c[nH]c3ccccc23)[nH]c1=O`, the “hERG current change (%, negative = inhibition) at 10uM” value is 11.2%.
Regarding `CC1=NN(C(=O)c2ccccc2F)C(O)(c2ccc(Cl)cc2)C1` (stereo not shown), the “hERG current change (%, negative = inhibition) at 10uM” value came to 7.35%.
For `NC(=O)NC(=O)COC(=O)c1cccc(NS(=O)(=O)/C=C/c2ccccc2)c1` the value was -1.89%.
Regarding `COc1ccc(-c2[nH]nc3oc(=O)cc(C)c23)cc1`, the “hERG current change (%, negative = inhibition) at 10uM” value worked out at 3.42%.
For `CC(=O)Nc1ccc(S(=O)(=O)N2CCC(C(=O)N[C@@H](C)C(=O)NC3CCCC3)CC2)cc1` the value was 35.3%; for `CC(C)NC(=O)c1ccccc1S(=O)c1ccccc1C#N` (stereo not shown), 9.33%.
For `COC(=O)c1ccc(C2c3c(oc4ccc(Cl)cc4c3=O)C(=O)N2CCN2CCOCC2)cc1` (stereo not shown) the value was -35.2%.
For `CCCN1CNC(=S)N(c2cc(C)ccc2C)C1` the value was 4.56%; for `COc1ccc(N2CCN(C(=O)CCS(=O)(=O)c3ccc(OC)cc3)CC2)cc1`, -19.3%.
Regarding `CCOC(=O)c1c(C)c(C(=O)Nc2ccc3c(c2)OCO3)c(C)n1C`, the “hERG current change (%, negative = inhibition) at 10uM” value worked out at 0.63%.
With `CCN1CCCC1CNC(=O)c1ccc2c(c1)N(Cc1ccccc1F)C(=O)c1ccccc1S2(=O)=O` (stereo not shown), the “hERG current change (%, negative = inhibition) at 10uM” value is reported as -16.7%.
With `Cc1ccc(S(=O)(=O)NCC2CCC(C(=O)NCCCN3CCCC3=O)CC2)cc1` (stereo not shown), the “hERG current change (%, negative = inhibition) at 10uM” value came out at 15.8%.
Consider `CN(C)S(=O)(=O)N1CCC(Oc2cccc(C(=O)NCCC3=CCCCC3)c2)CC1`, for which the “hERG current change (%, negative = inhibition) at 10uM” value was -2.44%.
The value for `CCOC(=O)C1=C(COC(=O)[C@@H]2CCCN2S(=O)(=O)c2ccc(C)cc2)NC(=O)NC1C` (stereo partly shown) was 6.58%; that for `CC(C)C(NC(=O)c1ccc(F)cc1)C(=O)NCC1CCCO1` (stereo not shown) was 5.5%; that for `Cc1ccc(C(=O)NCC(=O)N/N=C/c2cccs2)cc1[N+](=O)[O-]` was -6.65%.
On to `Cc1ccc(/C=N/NC(=O)CNC(=O)COc2ccccc2)cc1`, for which the “hERG current change (%, negative = inhibition) at 10uM” value is on record as 0.0545%.
For `O=C(CN1C(=O)c2ccccc2C1=O)Nc1ccc(S(=O)(=O)NCC2CCCO2)cc1` (stereo not shown) the value was 10.7%; for `COC(=O)COc1cccc2c(=O)n(CC(=O)NCCc3ccc(OC)c(OC)c3)ccc12`, 2.88%.
For `CC1(C)C2CCC1(CS(=O)(=O)NC1CCCC1)C(=O)C2` (stereo not shown) the value was 2.14%; for `CCCS(=O)(=O)N1CCN(C(=O)c2ccc(-c3ccccc3)cc2)CC1`, -30.2%.
As to `CCOc1ccc(C(=O)OCC(=O)Nc2ccc3c(c2)OCCO3)cc1OC`, the “hERG current change (%, negative = inhibition) at 10uM” value is reported as 6.78%.
With `CCOC(=O)c1cc(-c2cccnc2)nn1-c1ccccc1C`, the “hERG current change (%, negative = inhibition) at 10uM” value is on record as -10.5%.
The value for `COc1ccccc1N1C(=O)C2C(C(=O)c3ccccc3)=NN(c3ccc(C)cc3)C2C1=O` (stereo not shown) was -31.9%; that for `NC(N)=NC(=O)c1nc(Cl)c(N2CCCCCC2)nc1N` was -58.6%; that for `COC(=O)c1cnc(N2CCCN(S(=O)(=O)c3ccccc3)CC2)nc1C(F)(F)F` was -8.54%.
On to `CCCCn1c(=O)c(C(=O)Nc2ccccc2C)c(O)c2ccccc21`, for which the “hERG current change (%, negative = inhibition) at 10uM” value stood at 18.3%.
For `CCCN(CCC)S(=O)(=O)c1ccc(C(=O)N2CCC(=O)c3ccccc32)cc1` the value was -49.6%; for `CC(NS(=O)(=O)c1ccc2c(c1)OCCCO2)C(=O)O` (stereo not shown), 11.5%; for `CCOc1ccc(S(=O)(=O)N(CC)CC(=O)NC2CCS(=O)(=O)C2)cc1` (stereo not shown), 5.66%.
For `COc1cccc(CN(C)Cc2nc3cc(C(F)(F)F)ccc3c(=O)[nH]2)c1` the value was -3.19%; for `COc1ccc(/C=N/NC(=O)Cn2cnc3ccccc3c2=O)cc1OC`, -6.77%.
Consider `COc1ccc(/C=N\NC(=O)c2sc(N)nc2C)cc1OC`, for which the “hERG current change (%, negative = inhibition) at 10uM” value was -1.23%.
As to `N#Cc1c(F)cccc1NCc1cccnc1`, the “hERG current change (%, negative = inhibition) at 10uM” value is on record as 23.1%.
Regarding `COc1ccc(-c2csc(NC(=O)c3cccc(N4C(=O)CCC4=O)c3)n2)cc1OC`, the “hERG current change (%, negative = inhibition) at 10uM” value was -1.68%.
For `O=C(C1CC1)N1CCc2cc(S(=O)(=O)N3CCCc4ccccc43)ccc21` the value was 9.22%; for `COc1ccc(S(=O)(=O)N(CC(=O)NCc2cccnc2)Cc2ccccc2)cc1`, -76.5%.
`CC(=O)Nc1ccc(N2CCC(C)CC2)c([N+](=O)[O-])c1`: the “hERG current change (%, negative = inhibition) at 10uM” value was found to be 2.58%.
Turning to `Cc1ccccc1CCNC(=O)C1CCC(=O)N(C2CCCCCC2)C1` (stereo not shown), the “hERG current change (%, negative = inhibition) at 10uM” value is -7.44%.
The value for `COc1cc(NC(=O)c2ccc(COCC(F)(F)F)o2)cc(OC)c1OC` was -16.8%.
